Test results published in patent US20230203155A1 (ALMAC DISCOVERY, published 2023).

Assays:
[1] = biological target: T1, human ROR1-hFc fusion protein (extracellular domain) (human); assay: SPR, ROR1-hFc on chip
T1 construct: Whole entry 'human ROR1-Fc (CHO)'; also called hROR1; huROR1-Fc

[2] = biological target: T2, human ROR2-hFc fusion protein (extracellular domain) (human); assay: SPR, ROR2-hFc on chip
T2 construct: Whole entry 'human ROR2-Fc (CHO)'; also called hROR2

[3] = biological target: T3, human ROR1 on the surface of ROR1hi human cancer cell lines (human, UniProt Q01973 30-937); assay: flow cytometry, A549 (ROR1hi) against A427 (ROR1low) cells, PE-anti-human antibody
T3 construct: whole, on cells; Cell line is named under assay; also called cell surface ROR1

[4] = biological target: T1, human ROR1-hFc fusion protein …; assay: SPR, ROR1-hFc on chip; remark: listed apart in the source
[5] = biological target: T2, human ROR2-hFc fusion protein …; assay: SPR, ROR2-hFc on chip; remark: listed apart in the source
[6] = biological target: T1, human ROR1-hFc fusion protein …; assay: SPR, human ROR1 ECD-Fc on chip;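 also: SPR binding kinetics of VNAR and VNAR-Fc molecules run at a range of concentrations over immobilised target, rate and affinity constants fitted with QDat software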

B1: 2V hFc (Fc fusion)
chain: TRVDQTPRTATKETGESLTINCVLTDTSYGLYSTSWFRKNPGTTDWERMSIGGRYVESVNKGAKSFSLRIKDLTVADSATYYCKAQSLAISTRSYWYDGAGTVLTVNGGGGSGGGGSGGGGS[human IgG1 Fc with changes cut from this listing]
notes: control; also called 2V hFc (S252C)
B1: no binding [1]; no binding [2]; no binding (tested: 122 nM) [3].

B2: 2V hFc-MMAE (Fc fusion)
chain: TRVDQTPRTATKETGESLTINCVLTDTSYGLYSTSWFRKNPGTTDWERMSIGGRYVESVNKGAKSFSLRIKDLTVADSATYYCKAQSLAISTRSYWYDGAGTVLTVNGGGGSGGGGSGGGGS[human IgG1 Fc with changes cut from this listing]
modifications: MC vc PAB MMAE on engineered Cys (S252C, Kabat)
notes: control conjugate; also called 2V-hFc-vcMMAE
B2: no binding [1]; no binding [2]; no binding (tested: 122 nM) [3].

B3: hFc-P3A1 (Fc fusion)
chain: [human IgG1 Fc with changes cut from this listing]GGGGSGGGGSGGGGSGGGGSGGGGSTRVDQTPRTATKETGESLTINCVLTDTSYGLYSTSWFRKNPGTTDWERMSIGGRYVESVNKGAKSFSLRIKDLTVADSATYYCKAREARHPWLRQWYDGAGTVLTVN
notes: VNAR at C terminus of Fc; also called hFc (S252C) P3A1
B3 was tested, and the Kd [4] was 0.35 nM, the koff [4] was 0.000776 s⁻¹ and the kon [4] was 2.38e+06 M⁻¹ s⁻¹. B3: no binding [5].

B4: B1G1-hFc (Fc fusion)
chain: TRVDQSPSSLSASVGDRVTITCVLTGANYGLASTYWYRKNPGSSNKEQISISGRYSESVNKGTKSFTLTISSLQPEDSATYYCRAYPWGAGAPWLVQWYDGAGTKVEIKGGGGSGGGGSGGGGS[human IgG1 Fc with changes cut from this listing]
notes: also called B1G1 hFc (S252C)
For B4, the Kd [6] was 11.8 nM, the koff [6] was 0.00266 s⁻¹ and the kon [6] was 240000 M⁻¹ s⁻¹.

B5: B1G2-hFc (Fc fusion)
chain: TRVDQSPSSLSASVGDRVTITCVLTGANYGLASTYWYRKNPGSSNQERISISGRYSESVNKRTMSFTLTISSLQPEDSATYYCRAYPWGAGAPWLVQWYDGAGTKVEIKGGGGSGGGGSGGGGS[human IgG1 Fc with changes cut from this listing]
notes: also called B1G2 hFc (S252C)
With B5 the Kd [6] was 2.55 nM, the koff [6] was 0.00141 s⁻¹ and the kon [6] was 626000 M⁻¹ s⁻¹.

Where two headings read alike, the source gives them in different places.
